# Experimental data published in PubChem BioAssay AID504466 (National Center for Advancing Translational Sciences (NCATS), 2011).
# Among all 330,000 compounds or so, about 4,200 (1.3%) were called active. The inconclusive results got no clear call from the source; some entries with a clear call stand among them for comparison. Calls come from the whole dose curve; as a rule, active = well fitted activation curve with a large enough effect; inconclusive = small, poorly fitted or top-dose-only effect; inactive = no such curve, though single readings can be large or run the other way. Where the call is inconclusive, the potency comes from a doubtful curve fit.
# Test: qHTS screen for small molecules that induce genotoxicity in human embryonic kidney (HEK293T) cells expressing luciferase-tagged ELG1; note: nearly all actives have a fitted effect of over 60% in size; for activity change, positive = activation: % of control where 0% means no effect
# Conditions: HEK293T ELG1-luciferase reporter, luminescence, 16 h; series mostly up to 46 µM
# In short: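 Luminescence read-out: rising ELG1-luciferase signal, reflecting elevated ELG1 protein under genetic stress, flags genotoxic compounds. Cells were treated for 16 hr at 37 °C before ONE-Glo detection.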
# Potency is the fitted concentration of half-maximal effect; tags give direction and shape of the fitted curve.
SMILES,Potency,"activity change, positive = activation"
O=C(Nc1ccon1)c1cc2ccccc2oc1=O,"inconclusive: 20.6 µM [activator, partial curve, poor fit]",–
Cc1ccc(N(C(=O)Cc2cccs2)C(C(=O)NCC2CCCO2)c2ccncc2)cc1 (stereo unspecified),"inconclusive: 14.6 µM [activator, partial curve, poor fit]",–
O=C(CN1CCc2ccccc2C1)Nc1ccccc1Cl,"inconclusive: 29.1 µM [activator, single point]",–
COc1ccc2sc3ccccc3c(=O)c2c1,"inconclusive: 14.6 µM [activator, partial curve, poor fit]",–
CN(C(=O)c1ccc(C#N)cc1)c1nnc(-c2ccccn2)s1,inactive,–
Cc1ccc(C)c(SCC(=O)OC/C(O)=C(\C#N)c2nc3ccccc3[nH]2)c1,"inconclusive: 32.6 µM [activator, partial curve, poor fit]",–
Cc1cc2nc(N3C(=O)CNC3=S)sc2cc1C,active: 18.3 µM,–
CCOc1ccccc1CNC(=O)Cn1nc(C)c2c(C)n(-c3ccc(C)cc3)nc2c1=O,–,inactive: -6.02% [at 9.26 µM]
Fc1ccccc1CSc1nnc(-c2cccnc2)o1,"inconclusive: 11.6 µM [activator, partial curve]",–
Cc1cc(=O)oc2cc(OCC(=O)NC3CC(C)(C)NC(C)(C)C3)c(Cl)cc12,–,inactive: 0.815% [at 9.26 µM]
O=C(O)CN1C(=O)c2cccc3c(Br)ccc1c23,inactive,–
O=C1C(C=NCCCN2CCCC2=O)=C(O)c2ccccc21,active: 18.4 µM,–
O=C(Nc1nnc(-c2ccccc2Cl)o1)c1nc2ccccc2s1,"inconclusive: 18.4 µM [activator, single point]",–
COc1ccc(C(=O)Nc2ccc3c(c2)n(C)c(=O)n3C)cc1OC,"inconclusive: 20.6 µM [activator, single point]",–
COC(=O)CCNc1ccc2c(c1)OCCO2,active: 9.2 µM,–
O=C(Nc1ccon1)c1ccc2c(c1)OCO2,"inconclusive: 18.4 µM [activator, partial curve]",–
Cc1ccc(N2C(=O)c3cccc4c(N)ccc(c34)C2=O)c2cccnc12,"inconclusive: 1.64 µM [activator, full curve, poor fit]",–
NC(=O)c1ccccc1NC(=O)N1CCOCC1,inactive,–
CCc1ccc(C(=O)C(C)OC(=O)c2nn(C)c(=O)c3ccccc23)cc1 (stereo unspecified),inactive,–
Cc1cccc(NC(=O)c2ccc3c(c2)OCCO3)c1C,"inconclusive: 3.55 µM [activator, single point]",–
O=C(NCCO)c1ccc2c3n(nc2c1)-c1ccc(Cl)cc1CO3,"inconclusive: 16.4 µM [activator, partial curve]",–
COC(=O)Cc1nnc(NC(=O)c2ccccc2)s1,inactive,–
CN(C)S(=O)(=O)c1ccc(C(=O)Nc2nc3ccccc3[nH]2)cc1,"inconclusive: 20.6 µM [activator, partial curve]",–

SMILES,Potency,"activity change, positive = activation"
COC(=O)c1cnn2c3c(c(C)nc12)CCCC3,"inconclusive: 20.6 µM [activator, partial curve, poor fit]",–
CCc1nn(-c2cc(Oc3cccc4ccccc34)nc(-c3ccccc3)n2)c(N)c1C#N,"inconclusive: 5.8 µM [activator, partial curve, poor fit]",–
CCn1nnc(NC(=O)c2ccc(C(C)(C)C)cc2)n1,"inconclusive: 2.31 µM [activator, full curve]",–
O=C(NNC(=O)c1cccs1)c1ccc(Cl)cc1,"inconclusive: 20.6 µM [activator, partial curve, poor fit]",–
CCOc1ccccc1N1CCN(C2=C(NS(=O)(=O)c3cccs3)C(=O)c3ccccc3C2=O)CC1,inactive,–
O=c1[nH]c(SCC2CCCCO2)nc2ccccc12 (stereo unspecified),"inconclusive: 18.4 µM [activator, partial curve, poor fit]",–
CCC(C)(C)c1nnc(NC(=O)c2ccc([N+](=O)[O-])cc2)s1,"inconclusive: 2.91 µM [activator, full curve, poor fit]",–
O=C1CCC(C(=O)N2CCCO2)CN1Cc1cccc(C(F)(F)F)c1 (stereo unspecified),"inconclusive: 16.4 µM [activator, partial curve, poor fit]",–
N=C1C(c2ccccc2)=C(O)CN1c1cccc2ccccc12,inactive,–
COc1cccc(C(CNC(=O)C(c2ccccc2)c2ccccc2)N(C)C)c1 (stereo unspecified),inactive,–
CCOC(=O)N1CCN(C(=O)CSCC(=O)Nc2nc(-c3ccc(OC)cc3)cs2)CC1,inactive,–
N#C/C(=C\c1cccs1)c1nc2ccccc2[nH]1,"inconclusive: 20.6 µM [activator, partial curve, poor fit]",–
CCOC(=O)Cc1csc(NC(=O)c2ccco2)n1,active: 16.4 µM,–
COc1ccc(N=C2CCS(=O)(=O)c3sccc32)cc1,"inconclusive: 20.6 µM [activator, partial curve, poor fit]",–
CCN=c1scc(-c2cccs2)n1/N=C/c1cc(OC)ccc1O,"inconclusive: 6.51 µM [activator, partial curve]",–
O=C(NCCc1ccccc1Cl)C1CCC(=O)N(Cc2cccc(C(F)(F)F)c2)C1 (stereo unspecified),inactive,–
CN(C(=O)c1ccccn1)c1nnc(-c2cnccn2)s1,"inconclusive: 14.6 µM [activator, partial curve, poor fit]",–
CCCCNC(=O)N1CCCN(c2ccc(C#N)cn2)CC1,inactive,–
O=c1[nH]c(C2CCCN(S(=O)(=O)c3ccccc3F)C2)nc2c1nnn2Cc1ccccc1Cl (stereo unspecified),"inconclusive: 6.51 µM [activator, partial curve, poor fit]",–
Cn1c(=O)[nH]c(=O)c2c1nc(Br)n2CCCSc1nc2ccccc2o1,"inconclusive: 20.6 µM [activator, partial curve, poor fit]",–
CC(C)(C)C(=O)Nc1ccc(-c2cn3cccnc3n2)cc1,active: 18.3 µM,–
CC(Sc1nnc(-c2cccnc2)n1-c1ccccc1)C(=O)NCc1ccc2c(c1)OCO2 (stereo unspecified),"inconclusive: 18.4 µM [activator, partial curve]",–
CCOC(=O)/C(C#N)=N/Nc1ccc(S(=O)(=O)N2CCc3ccccc32)cc1,inactive,–
